Reference: the supplement of paper PMC3334620
Whole data set: some 33,000 sequences, median “E-score (-0.5 to 0.5)” near -0.054, cut for the highest 2% near 0.39. The list shows a part of the results.

Target: Ylr278c (UniProt Q05854)
Assay: PBM E-score (8-mer binding enrichment) (E-score (-0.5 to 0.5)); higher = stronger / more preferred TF binding; most listed sequences are background and not binding sites
Conditions: protein concentration: 200 nM; construct: GST-DNA-binding domain
In short: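 Each ungapped eight-base word and its reverse complement, pooled, received an E-score from the Universal PBM Analysis Suite. Underlying scans, normalised with masliner, recorded fluorescent anti-GST bound to GST-tagged yeast transcription factors. These were applied at about 100-200 nM to universal all-10-mer Agilent arrays double-stranded by primer extension.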

Sequence | PBM E-score
GCTGGTAC | 0.00772
CCACGCCA | -0.347
GTCGTAGA | -0.127
AGCCCCCT | -0.299
ACGCAGTA | -0.0608
GGATGTCA | 0.129
CTCTGCTA | -0.128
CCGTGAGA | 0.0791
CACGTTTC | 0.0398
ATCACTGG | -0.176
ATGCTCAA | -0.0531
ATCTTGCG | 0.107
GGACACAA | 0.124
CAGTCGCG | -0.0179
CATCATAG | -0.0591
CCTACCAC | -0.19
ATAGCGGG | 0.0855
ATTCCGAA | 0.456
CCCTATCG | -0.117
ATGGGAAC | -0.116
ACTTAGTC | -0.126
TCTAGCAA | -0.0561
CGTCCTTC | 0.0799
CGTATAGA | -0.153
AGAAAGGC | -0.0463

Sequence | PBM E-score
GCATCTAA | 0.106
CACGGAAC | 0.276
ACTTAAAT | -0.129
ACTGTAAG | 0.0137
TATAGTGA | -0.263
TCGTAGCA | -0.109
GTGTTAAC | -0.21
CGCCCACC | 0.0265
GGAGAGAC | 0.201
AGCTTGTA | -0.263
GCCCTACA | -0.0147
ACTTAGAC | -0.14
ATAAAGAT | -0.0953
CATGCGGG | 0.0357
CAAGCGTC | -0.121
AGGCGGGA | 0.136
ATGGCTAC | -0.185
GAGACATC | -0.0277
GACTACTA | -0.0974
CTATAAGC | -0.0751
AAGAAAAT | 0.0515
CAGGTACG | -0.123
CGCAATCA | 0.124
GCGCGGAA | 0.387
CAGGTGTA | -0.197

Sequence | PBM E-score
GCTGCGTA | -0.264
GTCCAATA | 0.106
GAAGGGCC | -0.103
GAGACGCA | 0.0249
CAGTGAAC | -0.136
GTAACCAA | -0.00064
ACTTTCAA | 0.0431
GATAAGAC | 0.0109
GCCTGCGC | -0.00627
ACACCGGA | 0.416
GACGTAAA | 0.1
AGTACCTG | -0.251
CCATTCTA | -0.0579
ACTTCGTG | -0.225
CGAAAATC | 0.0899
TATCGTCA | -0.218
ACGCGGCT | 0.0317
AGCTACAT | -0.239
CGAGATCA | 0.013
CCACTCCA | -0.0346
CATTGCCA | -0.0974
TCAAGCAA | -0.068
AGCCGACG | 0.266
CTTCGGGA | 0.195
CCGCGTGA | 0.226

Sequence | PBM E-score
CCATAGTC | -0.0926
GAATGGTC | 0.0638
ACAATGGT | -0.255
AAGCGATT | -0.139
AACCCCAA | 0.0839
ATTCCAGG | -0.0513
ACCTGTAC | -0.161
AGACCTCG | -0.139
CCCGTCCA | 0.0374
GATAAGTA | 0.0578
GATCCGCA | 0.273
CCCGCATC | 0.0872
CGAACGAC | 0.0861
CCTGACAA | -0.202
TACGGCAA | 0.129
AGGCTGTC | -0.147
CCAGGGTC | -0.158
GCCGGAAC | 0.432
ACATTTCA | 0.00316
ATAGTTCA | -0.103
ATAATGCA | -0.276
AATCCCGA | 0.42
ACACCCGG | 0.294
AGTTGCAT | -0.0017
ACAGCAAA | -0.115

Sequence | PBM E-score
CGTGGAAA | 0.193
AGAGCATA | -0.162
CGCAGCAC | -0.0197
AATATGGG | -0.259
CTTGCTCA | -0.0969
ACATACAT | -0.0377
ATTCTTGC | 0.00795
GCTCGGAC | 0.382
CGTCTGCC | 0.0806
GTCCACAC | 0.0892
GATATATC | 0.137
ACTGAGTA | -0.295
CTGGAATA | -0.00539
AAGACCAG | -0.0179
AACTACGC | 0.15
CGTTTAGA | -0.0047
GAGCGCCA | 0.0167
GTAGCAAC | -0.0765
CACGTTGG | -0.266
ACGGCGCG | 0.226
ACTCCATA | -0.0745
CGTCGACC | -0.067
ATAGCCGC | 0.175
CACCGCAG | 0.104
AACAGGCA | -0.192

Sequence | PBM E-score
GTCACCCA | -0.109
CTTACACA | -0.148
AAGAAAAC | 0.0482
ATATCGAA | 0.027
ATACGGAC | 0.242
ACGATCTC | -0.0738
AAGGTTCT | -0.0412
CCTGGTTC | 0.106
CTATGTCC | 0.163
ACCCACAG | -0.375
CGCGAATA | 0.172
CAGAAATC | -0.0409
CAGACGTC | -0.205
CCGTGAAC | 0.163
CGATTTTA | 0.0784
CAGCGGGA | 0.0661
AGAAAATC | 0.162
ACGATTTC | 0.033
AGATCGAT | -0.0782
ACACACCG | 0.0986
AGTCTCTG | -0.225
ATCAAGTC | -0.138
GCCGCAAA | 0.18
ACCCTAAA | 0.099
TATTAGAA | -0.0213

Sequence | PBM E-score
AGGAAAAA | -0.148
CCCATGGG | 0.0687
GTATACTA | -0.186
ACCATGGG | -0.158
GCAGGTAC | -0.107
CGTAATGC | 0.0396
AATACCTA | -0.155
TCAAGAAA | 0.0296
AGAAGCAT | -0.11
ATGCTACC | 0.0654
CGCTACAG | -0.103
AAAGCGAT | 0.0361
CAAGACGC | 0.107
GGAAAAAA | 0.247
ATTCGATA | -0.0972
GAGAAAAA | 0.199
CACCAAGG | -0.0697
TCCGGTAA | 0.44
GCGGTGGA | 0.107
AGGCGGAT | 0.237
CCTTACTC | 0.126
ATTGCGAC | 0.15
